The subject of this experiment is Trichoderma virens ATCC 9645. Description: growth yield (OD600) with compound + IPBC relative to untreated control; higher = less growth inhibition. The following applies: compound concentration: 100 uM, IPBC concentration: 200 ng/ml. In short, it runs like this: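 Plates were read for OD600 at 40 h and 72 h after Trichoderma virens ATCC 9645 spores (15,000 spores ml^−1 in potato dextrose broth) were grown at 30 °C with library compounds at 100 μM final, with or without a biocide at 200 ng ml^−1. Growth is stated relative to the control with neither agent, as the mean of duplicate screens.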

The structures appear in SMILES notation. Where a name gives a salt, the structure may show the parent alone. ± gives the standard error. Hit rate of the full screen: of about 1,300 compounds, about 130 (10%) showed an effect of 50% or more. This is a selection; strong and weak results do not stand in their true shares.

Turning to `Cc1cc(C(C)(C)CC(C)(C)C)ccc1OCCOCC[N+](C)(C)Cc1ccccc1` [Methyl benzethonium chloride] + CCCCNC(=O)OCC#CI [3-iodo-2-propynyl butylcarbamate (IPBC)], the growth yield is 2.86 ± 0.64% (40 h) and 2.62 ± 0.1% (72 h). As for `CO[C@@]1(NC(=O)C2SC(=C(C(N)=O)C(=O)O)S2)C(=O)N2C(C(=O)O)=C(CSc3nnnn3C)CS[C@@H]21` (some centres not stated) [Cefotetan] + CCCCNC(=O)OCC#CI [3-iodo-2-propynyl butylcarbamate (IPBC)], the growth yield (40 h) amounted to 94.8 ± 2.4% and the growth yield (72 h) was determined as 96.5 ± 1.9%. For the compound `COC(=O)C1=C(C)NC(C)=C(C(=O)OC)C1c1ccccc1[N+](=O)[O-]` [Nifedipine] + CCCCNC(=O)OCC#CI [3-iodo-2-propynyl butylcarbamate (IPBC)], where the note is “40 h”, the growth yield turned out to be 42.41 ± 0.16%. For `Cc1scc2c1N(C(=O)CN1CCN(C)CC1)c1ccccc1NC2=O` [Telenzepine dihydrochloride] + CCCCNC(=O)OCC#CI [3-iodo-2-propynyl butylcarbamate (IPBC)], the growth yield (40 h) was 91.2 ± 15% and the growth yield (72 h) worked out at 98.7 ± 11%.

With `Cn1c(=O)c2nc[nH]c2n(C)c1=O` [Theophylline monohydrate] + CCCCNC(=O)OCC#CI [3-iodo-2-propynyl butylcarbamate (IPBC)], the growth yield runs as follows: (40 h) 101 ± 4.5%; (72 h) 99.3 ± 2.2%. `c1ccc(C2CN3CCSC3=N2)cc1` (configuration not stated) [Tetramisole hydrochloride] + CCCCNC(=O)OCC#CI [3-iodo-2-propynyl butylcarbamate (IPBC)]: the growth yield came to 87.8 ± 9.1% (40 h) and 93.1 ± 4.8% (72 h).

On to `COc1ccc(Cc2nccc3cc(OC)c(OC)cc23)cc1OC` [Papaverine hydrochloride] + CCCCNC(=O)OCC#CI [3-iodo-2-propynyl butylcarbamate (IPBC)], for which the growth yield reads like this: (40 h) 80.8 ± 1.1%; (72 h) 89.2 ± 1.6%.

Regarding `CCOC(=O)c1ccc(OC(=O)CCCCCNC(=N)N)cc1` [Gabexate mesilate] + CCCCNC(=O)OCC#CI [3-iodo-2-propynyl butylcarbamate (IPBC)], the growth yield was 51.3 ± 3% (40 h) and 67.6 ± 1.4% (72 h). Taken in the same sequence, the figures for `CCCN[C@H]1CCc2nc(N)sc2C1` [Pramipexole dihydrochloride] + CCCCNC(=O)OCC#CI [3-iodo-2-propynyl butylcarbamate (IPBC)] were 116 ± 5.1% and 111 ± 3.4%. In the case of `Cc1cc(=O)oc2cc(O)ccc12` [Hymecromone] + CCCCNC(=O)OCC#CI [3-iodo-2-propynyl butylcarbamate (IPBC)], the growth yield worked out at 91.7 ± 3% (40 h) and 92.5 ± 3.8% (72 h). For `CCC1(CC)C(=O)C=CNC1=O` [Pyrithyldione] + CCCCNC(=O)OCC#CI [3-iodo-2-propynyl butylcarbamate (IPBC)], the growth yield (40 h) was 103 ± 15% and the growth yield (72 h) turned out to be 101 ± 10%. Turning to `CC(COc1ccccc1)N(CCCl)Cc1ccccc1` (configuration not stated) [Phenoxybenzamine hydrochloride] + CCCCNC(=O)OCC#CI [3-iodo-2-propynyl butylcarbamate (IPBC)], the growth yield by setting is: (40 h) 101 ± 5.4%; (72 h) 102 ± 2.4%.

Consider `COc1ccc(CN(CCN(C)C)c2ccccn2)cc1` [Pyrilamine maleate] + CCCCNC(=O)OCC#CI [3-iodo-2-propynyl butylcarbamate (IPBC)], for which the growth yield reads like this: (40 h) 82.8 ± 4.6%; (72 h) 92.4 ± 4.9%.

Consider `CCCNC(C)C(=O)Nc1ccccc1C` (configuration not stated) [Prilocaine hydrochloride] + CCCCNC(=O)OCC#CI [3-iodo-2-propynyl butylcarbamate (IPBC)], for which the growth yield (40 h) was 86.4% and the growth yield (72 h) came out at 95.54 ± 0.52%. In the case of `CC(=O)c1ccc(S(=O)(=O)NC(=O)NC2CCCCC2)cc1` [Acetohexamide] + CCCCNC(=O)OCC#CI [3-iodo-2-propynyl butylcarbamate (IPBC)], the growth yield was determined as 86.2 ± 1.1% (40 h) and 91.56 ± 0.52% (72 h). For the compound `CCOC(=O)OC(C)OC(=O)[C@@H]1N2C(=O)[C@@H](NC(=O)[C@H](N)c3ccccc3)[C@H]2SC1(C)C` (some centres not stated) [Bacampicillin hydrochloride] + CCCCNC(=O)OCC#CI [3-iodo-2-propynyl butylcarbamate (IPBC)], the growth yield runs as follows: (40 h) 89.1 ± 7.5%; (72 h) 92.3 ± 3.8%. `CCOC(=O)[C@H](CCc1ccccc1)N[C@H]1CCc2ccccc2N(CC(=O)O)C1=O` [Benazepril hydrochloride] + CCCCNC(=O)OCC#CI [3-iodo-2-propynyl butylcarbamate (IPBC)]: the growth yield reads like this: (40 h) 84.98 ± 0.79%; (72 h) 90.4 ± 1.3%.

`COC1=C(OC)C(=O)C(CCCCCCCCCCO)=C(C)C1=O` [Idebenone] + CCCCNC(=O)OCC#CI [3-iodo-2-propynyl butylcarbamate (IPBC)]: the growth yield (40 h) was determined as 49.1 ± 8.1%. For `NCCCC[C@H](N[C@@H](CCc1ccccc1)C(=O)O)C(=O)N1CCC[C@H]1C(=O)O` [Lisinopril] + CCCCNC(=O)OCC#CI [3-iodo-2-propynyl butylcarbamate (IPBC)], the growth yield by setting is: (40 h) 91.7 ± 5.9%; (72 h) 97.7 ± 4.4%. As for `CC(C)(C)NC[C@H](O)COc1nsnc1N1CCOCC1` [Timolol maleate salt] + CCCCNC(=O)OCC#CI [3-iodo-2-propynyl butylcarbamate (IPBC)], the growth yield (40 h) turned out to be 88 ± 2.5% and the growth yield (72 h) was found to be 93.13 ± 0.63%. As to `O=C(Nc1cccc2c(=O)cc(-c3nnn[nH]3)oc12)c1ccc(OCCCCc2ccccc2)cc1` [Pranlukast] + CCCCNC(=O)OCC#CI [3-iodo-2-propynyl butylcarbamate (IPBC)], the growth yield reads like this: (40 h) 95.6 ± 7.6%; (72 h) 95.3 ± 5.1%. `O=C1CN2Cc3c(ccc(Cl)c3Cl)N=C2N1` [Anagrelide] + CCCCNC(=O)OCC#CI [3-iodo-2-propynyl butylcarbamate (IPBC)]: the growth yield came out at 95.8 ± 5.6% (40 h) and 93.5 ± 4.4% (72 h).

As for `CC(C)NCC(O)COc1ccc(COCCOC(C)C)cc1` (configuration not stated) [Bisoprolol fumarate] + CCCCNC(=O)OCC#CI [3-iodo-2-propynyl butylcarbamate (IPBC)], the growth yield (40 h) is 91.81 ± 0.32% and the growth yield (72 h) came out at 93.97 ± 0.84%. Regarding `Nc1nc(=S)c2ncn([C@@H]3O[C@H](CO)[C@@H](O)[C@H]3O)c2[nH]1` [Thioguanosine] + CCCCNC(=O)OCC#CI [3-iodo-2-propynyl butylcarbamate (IPBC)], the growth yield was 46.1 ± 0.64% (40 h) and 88.3 ± 2.3% (72 h).

Regarding `Fc1ccc(C(OCCN2CCN(CCCc3ccccc3)CC2)c2ccc(F)cc2)cc1` + CCCCNC(=O)OCC#CI [3-iodo-2-propynyl butylcarbamate (IPBC)], where the note is “40 h”, the growth yield worked out at 13.3 ± 4.8%. For the compound `CC(C)(C)NCC(O)c1cc(Cl)c(N)c(Cl)c1` (configuration not stated) [Clenbuterol hydrochloride] + CCCCNC(=O)OCC#CI [3-iodo-2-propynyl butylcarbamate (IPBC)], the growth yield (40 h) stood at 78.8 ± 0.95% and the growth yield (72 h) was 89.7 ± 2.6%. Taken in the same sequence, the figures for `CC(=O)N[C@@H](CC(C)C)C(=O)O` [N-Acetyl-L-leucine] + CCCCNC(=O)OCC#CI [3-iodo-2-propynyl butylcarbamate (IPBC)] were 86.57 ± 0.16% and 93.8 ± 2.3%. `Nc1nc(F)nc2c1ncn2[C@@H]1O[C@H](CO)[C@@H](O)[C@@H]1O` [Fludarabine] + CCCCNC(=O)OCC#CI [3-iodo-2-propynyl butylcarbamate (IPBC)]: the growth yield was 85.3 ± 2.4% (40 h) and 86.6 ± 1.1% (72 h). The like results for `Clc1ccc(C(Cn2ccnc2)OCc2c(Cl)cccc2Cl)c(Cl)c1` (configuration not stated) [Isoconazole] + CCCCNC(=O)OCC#CI [3-iodo-2-propynyl butylcarbamate (IPBC)] were, in that order, 4.13 ± 0.64% and 2.83 ± 0.32%. For the compound `NC(=O)N1c2ccccc2C=Cc2ccccc21` [Carbamazepine] + CCCCNC(=O)OCC#CI [3-iodo-2-propynyl butylcarbamate (IPBC)], the growth yield runs as follows: (40 h) 92.8 ± 1.9%; (72 h) 93.8 ± 1.1%. As to `CN(C)CCN(Cc1cccs1)c1ccccn1` [Methapyrilene hydrochloride] + CCCCNC(=O)OCC#CI [3-iodo-2-propynyl butylcarbamate (IPBC)], the growth yield (40 h) stood at 91.2 ± 12% and the growth yield (72 h) was determined as 97 ± 6.6%. Taken in the same sequence, the figures for `COc1c(O[C@@H]2O[C@H](CO)[C@@H](O)[C@H](O)[C@H]2O)cc2c(c1OC)-c1ccc(SC)c(=O)cc1[C@@H](NC(C)=O)CC2` [Thiocolchicoside] + CCCCNC(=O)OCC#CI [3-iodo-2-propynyl butylcarbamate (IPBC)] were 84.5 ± 1.3% and 90 ± 1.1%. `O=C(Cn1ccnc1[N+](=O)[O-])NCCO` [Etanidazole] + CCCCNC(=O)OCC#CI [3-iodo-2-propynyl butylcarbamate (IPBC)]: the growth yield is, setting by setting: (40 h) 91.3 ± 3.3%; (72 h) 92.2 ± 3.9%. In the case of `CCN(CC)CCNC(=O)c1cc(S(C)(=O)=O)ccc1OC` [Tiapride hydrochloride] + CCCCNC(=O)OCC#CI [3-iodo-2-propynyl butylcarbamate (IPBC)], the growth yield (40 h) amounted to 82.12 ± 0.48% and the growth yield (72 h) came out at 92.61 ± 0.52%.

Regarding `O=C(CCCN1CC=C(n2c(=O)[nH]c3ccccc32)CC1)c1ccc(F)cc1` [Droperidol] + CCCCNC(=O)OCC#CI [3-iodo-2-propynyl butylcarbamate (IPBC)], the growth yield is 76.72 ± 0.16% (40 h) and 90.72 ± 0.73% (72 h). As to `C#CCN(C)Cc1ccccc1` [Pargyline hydrochloride] + CCCCNC(=O)OCC#CI [3-iodo-2-propynyl butylcarbamate (IPBC)], the growth yield runs as follows: (40 h) 89.3 ± 4.5%; (72 h) 95.5 ± 2.4%. With `COc1ccc2cc(CCC(C)=O)ccc2c1` [Nabumetone] + CCCCNC(=O)OCC#CI [3-iodo-2-propynyl butylcarbamate (IPBC)], under “40 h”, the growth yield turned out to be 39.7 ± 1.6%. As for `CCn1cc(C(=O)O)c(=O)c2ccc(C)nc21` [Nalidixic acid sodium salt] + CCCCNC(=O)OCC#CI [3-iodo-2-propynyl butylcarbamate (IPBC)], for the setting “40 h”, the growth yield is 49.2 ± 1.6%. For the compound `Cc1ccc(S(=O)(=O)NC(=O)NN2CC3CCCC3C2)cc1` (configuration not stated) [Gliclazide] + CCCCNC(=O)OCC#CI [3-iodo-2-propynyl butylcarbamate (IPBC)], the growth yield by setting is: (40 h) 92.6 ± 4.6%; (72 h) 96.7 ± 3.4%. As to `CCCCS(=O)(=O)N[C@@H](Cc1ccc(OCCCCC2CCNCC2)cc1)C(=O)O` [Tirofiban hydrochloride] + CCCCNC(=O)OCC#CI [3-iodo-2-propynyl butylcarbamate (IPBC)], the growth yield by setting is: (40 h) 85.5 ± 1.9%; (72 h) 91.3 ± 0.94%.

Consider `COc1nc(C)nc(Cl)c1NC1=NCCN1` [Moxonidine] + CCCCNC(=O)OCC#CI [3-iodo-2-propynyl butylcarbamate (IPBC)], for which the growth yield came out at 96.7 ± 5.9% (40 h) and 99.6 ± 4% (72 h).

Values taken from the supplement of paper PMC8007513.
